This is one part of the list. These are noisy estimates, calculated here from bound and input reads.
Molecular target: T1, Pho4 (S. cerevisiae) (UniProt P07270)
T1 sequence: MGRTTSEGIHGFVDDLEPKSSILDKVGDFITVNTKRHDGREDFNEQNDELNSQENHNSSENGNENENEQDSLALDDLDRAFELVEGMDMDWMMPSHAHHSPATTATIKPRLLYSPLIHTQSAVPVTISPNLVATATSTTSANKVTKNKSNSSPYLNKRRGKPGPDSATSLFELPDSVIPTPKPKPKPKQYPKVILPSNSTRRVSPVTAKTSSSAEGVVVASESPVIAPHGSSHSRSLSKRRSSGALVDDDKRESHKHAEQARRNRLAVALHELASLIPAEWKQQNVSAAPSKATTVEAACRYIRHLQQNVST
Assay: relative binding free energy (BET-seq); higher = weaker binding
Settings: reference: library average

Question: For TATACCACGTGGGTGG, which “relative binding free energy” value is on record?
Answer: Its value is -0.21 kcal/mol.

Question: For GGTCTCACGTGGGAAG, which “relative binding free energy” value is on record?
Answer: Its value is 0.2 kcal/mol.

Question: For ACATCCACGTGGGGTG, which “relative binding free energy” value is on record?
Answer: Its value is -0.04 kcal/mol.

Question: How did the “relative binding free energy” value turn out when ATTGTCACGTGGTCTA was run?
Answer: Its value is -0.05 kcal/mol.

Question: With AGCGACACGTGGGTAG as the sequence, how does the “relative binding free energy” value read?
Answer: The value was -0.25 kcal/mol.

Question: How did the “relative binding free energy” value turn out when ATGCTCACGTGTTTTG was run?
Answer: The value was 0.06 kcal/mol.

Question: With GTAATCACGTGGTGTA as the sequence, how does the “relative binding free energy” value read?
Answer: The value was 0.12 kcal/mol.

Question: Which “relative binding free energy” value does the source give for AGTTGCACGTGGGATC here?
Answer: Its value is 0.05 kcal/mol.

Question: TAGTGCACGTGGGACC was tested. Which “relative binding free energy” value did it give?
Answer: Its value is 0.06 kcal/mol.

Question: With AGTGACACGTGTTGAT as the sequence, how does the “relative binding free energy” value read?
Answer: The value was 0.05 kcal/mol.

Question: How did the “relative binding free energy” value turn out when GGTTTCACGTGTCGTA was run?
Answer: Its value is 0.4 kcal/mol.

Question: GTGCACACGTGTTTGT was tested. Which “relative binding free energy” value did it give?
Answer: The value was 0.01 kcal/mol.

Question: With GATGGCACGTGTCGGA as the sequence, how does the “relative binding free energy” value read?
Answer: Its value is 0.09 kcal/mol.

Question: GGACACACGTGTAGGT was tested. Which “relative binding free energy” value did it give?
Answer: Its value is 0.11 kcal/mol.

Question: Which “relative binding free energy” value does the source give for TATATCACGTGAAAGG here?
Answer: Its value is 0.43 kcal/mol.

Question: TCTAGCACGTGATTGG was tested. Which “relative binding free energy” value did it give?
Answer: The value was 0.1 kcal/mol.

Question: Which “relative binding free energy” value does the source give for GATGGCACGTGATTAT here?
Answer: The value was 0.12 kcal/mol.

Question: Which “relative binding free energy” value does the source give for AAATGCACGTGTGAGG here?
Answer: Its value is 0.19 kcal/mol.

Question: How did the “relative binding free energy” value turn out when GCGGCCACGTGATGGG was run?
Answer: The value was -0.04 kcal/mol.

Question: TGAGGCACGTGGTAGA was tested. Which “relative binding free energy” value did it give?
Answer: Its value is -0.2 kcal/mol.

Question: Which “relative binding free energy” value does the source give for GGGTTCACGTGCGTGT here?
Answer: The value was 0.37 kcal/mol.

Question: With GGTTTCACGTGACAGT as the sequence, how does the “relative binding free energy” value read?
Answer: The value was 0.29 kcal/mol.

Question: How did the “relative binding free energy” value turn out when GGGTACACGTGTACTG was run?
Answer: Its value is 0.07 kcal/mol.

Question: With ATTAGCACGTGTGTCG as the sequence, how does the “relative binding free energy” value read?
Answer: Its value is -0.08 kcal/mol.

Question: With CGGTACACGTGAGGTA as the sequence, how does the “relative binding free energy” value read?
Answer: The value was 0.37 kcal/mol.

Question: For AGTGCCACGTGGAGTG, which “relative binding free energy” value is on record?
Answer: The value was -0.03 kcal/mol.

Question: Which “relative binding free energy” value does the source give for GCGGACACGTGGTGTA here?
Answer: The value was 0.04 kcal/mol.

Question: How did the “relative binding free energy” value turn out when TTGTACACGTGTATAG was run?
Answer: The value was 0.06 kcal/mol.

Question: TTGAACACGTGGATAG was tested. Which “relative binding free energy” value did it give?
Answer: Its value is 0.15 kcal/mol.

Question: With GGTTTCACGTGAGTTT as the sequence, how does the “relative binding free energy” value read?
Answer: The value was 0.51 kcal/mol.

Question: For ATTGTCACGTGATCGT, which “relative binding free energy” value is on record?
Answer: Its value is -0.01 kcal/mol.

Question: For AATTTCACGTGCGATT, which “relative binding free energy” value is on record?
Answer: Its value is 0.21 kcal/mol.

Question: With TGGCTCACGTGGTTAA as the sequence, how does the “relative binding free energy” value read?
Answer: The value was 0.2 kcal/mol.

Question: Which “relative binding free energy” value does the source give for GAAATCACGTGTGGTG here?
Answer: Its value is 0.11 kcal/mol.

Question: How did the “relative binding free energy” value turn out when TTTGACACGTGAGGGG was run?
Answer: Its value is 0.26 kcal/mol.

Question: Which “relative binding free energy” value does the source give for AAGGTCACGTGAGCGT here?
Answer: The value was 0.27 kcal/mol.

Question: For TAGAACACGTGTTGGT, which “relative binding free energy” value is on record?
Answer: Its value is 0.04 kcal/mol.

Question: For ATGTTCACGTGAGTCG, which “relative binding free energy” value is on record?
Answer: The value was 0.4 kcal/mol.

Question: For GCGTGCACGTGTTGCG, which “relative binding free energy” value is on record?
Answer: Its value is -0.02 kcal/mol.

Question: With TCTGGCACGTGTCGGG as the sequence, how does the “relative binding free energy” value read?
Answer: Its value is -0.11 kcal/mol.

Question: Which “relative binding free energy” value does the source give for GGCTGCACGTGATTAT here?
Answer: The value was 0.42 kcal/mol.

Question: Which “relative binding free energy” value does the source give for GGATACACGTGATTTG here?
Answer: The value was 0.37 kcal/mol.

Question: How did the “relative binding free energy” value turn out when AAGTTCACGTGGTGAA was run?
Answer: The value was 0.23 kcal/mol.

Question: For AGCGGCACGTGGTGCT, which “relative binding free energy” value is on record?
Answer: Its value is -0.21 kcal/mol.

Question: For TTGTTCACGTGGTAGT, which “relative binding free energy” value is on record?
Answer: Its value is 0.24 kcal/mol.

Question: How did the “relative binding free energy” value turn out when CGAGTCACGTGTATGT was run?
Answer: The value was 0.08 kcal/mol.

Question: With GGTGACACGTGTATAT as the sequence, how does the “relative binding free energy” value read?
Answer: The value was 0.02 kcal/mol.

Question: GAGTTCACGTGTTGGA was tested. Which “relative binding free energy” value did it give?
Answer: The value was 0.39 kcal/mol.

Question: With TTATTCACGTGGGTGT as the sequence, how does the “relative binding free energy” value read?
Answer: The value was 0.05 kcal/mol.

Question: With TTGAGCACGTGATGTC as the sequence, how does the “relative binding free energy” value read?
Answer: Its value is 0.03 kcal/mol.

Question: With AGACTCACGTGGGGAT as the sequence, how does the “relative binding free energy” value read?
Answer: Its value is 0.05 kcal/mol.

Question: TATTTCACGTGTGTCT was tested. Which “relative binding free energy” value did it give?
Answer: Its value is 0.25 kcal/mol.

Question: TGTCTCACGTGGATGG was tested. Which “relative binding free energy” value did it give?
Answer: The value was 0.18 kcal/mol.

Question: TCGAGCACGTGGTGGG was tested. Which “relative binding free energy” value did it give?
Answer: The value was -0.2 kcal/mol.

Question: For AAGCGCACGTGGGTAT, which “relative binding free energy” value is on record?
Answer: Its value is -0.24 kcal/mol.

Question: Which “relative binding free energy” value does the source give for TTCGTCACGTGGATCT here?
Answer: The value was 0.23 kcal/mol.

Question: How did the “relative binding free energy” value turn out when TGTGACACGTGGGGGC was run?
Answer: The value was -0.18 kcal/mol.

Question: Which “relative binding free energy” value does the source give for TGGCGCACGTGTTTCA here?
Answer: The value was 0.05 kcal/mol.

Question: ATTAACACGTGAAAGT was tested. Which “relative binding free energy” value did it give?
Answer: Its value is 0.27 kcal/mol.

Question: GTTCTCACGTGTAAGT was tested. Which “relative binding free energy” value did it give?
Answer: The value was 0.43 kcal/mol.

Question: With TGAGCCACGTGTTGAG as the sequence, how does the “relative binding free energy” value read?
Answer: The value was -0.08 kcal/mol.

Question: Which “relative binding free energy” value does the source give for ATCGTCACGTGTGGGG here?
Answer: The value was 0.05 kcal/mol.

Question: TCAAGCACGTGTTAGT was tested. Which “relative binding free energy” value did it give?
Answer: The value was -0.04 kcal/mol.
